Experimental data from the antibiotic and cytotoxicity screens of Wong et al. (2023).
Some of the results follow.

Assays:
HSkMC = human skeletal muscle cells; experiment: cytotoxicity call (relative viability < 0.9); settings: 10 µM
HepG2 = experiment: cytotoxicity call (relative viability < 0.9); settings: 10 µM
S. aureus RN4220 = experiment: growth inhibition call (relative growth <= 0.2); settings: 50 µM

CCCCCCOc1cccc(N)c1
inactive: cytotoxicity call (HSkMC) | cytotoxicity call (HepG2) | growth inhibition call (S. aureus RN4220)

COc1ccc(C#Cc2cnc3c(c2)C(=O)N([C@H](C)CO)C[C@@H](C)[C@H](CN(C)CC2CCOCC2)O3)cc1
inactive: cytotoxicity call (HSkMC) | cytotoxicity call (HepG2) | growth inhibition call (S. aureus RN4220)

C#CCCCCCCCCCCC[C@H](O)C[C@H](O)COC(C)=O.C=CCCCCCCCCCCC[C@H](O)C[C@H](O)COC(C)=O
inactive: cytotoxicity call (HSkMC) | cytotoxicity call (HepG2) | growth inhibition call (S. aureus RN4220)

COc1ccc(S(=O)(=O)Nc2cccc3c2O[C@@H](CN(C)C(=O)Nc2c(C)noc2C)[C@H](C)CN([C@H](C)CO)C3=O)cc1
inactive: cytotoxicity call (HSkMC) | cytotoxicity call (HepG2) | growth inhibition call (S. aureus RN4220)

COc1ccc(NC(=O)Nc2ccc3c(c2)C(=O)N([C@@H](C)CO)C[C@H](C)[C@@H](CN(C)C(=O)Nc2ccc(F)cc2)OCCCC[C@H](C)O3)cc1
inactive: cytotoxicity call (HSkMC) | cytotoxicity call (HepG2) | growth inhibition call (S. aureus RN4220)

C[C@@H]1CN([C@H](C)CO)C(=O)c2cccc(NC(=O)Nc3cccc4ccccc34)c2O[C@H]1CN(C)S(=O)(=O)c1cccs1
inactive: cytotoxicity call (HSkMC) | cytotoxicity call (HepG2) | growth inhibition call (S. aureus RN4220)

C[C@@H]1CCCCO[C@H](CN(C)S(C)(=O)=O)[C@@H](C)CN([C@@H](C)CO)C(=O)c2cc(NS(=O)(=O)c3ccc(F)cc3)ccc2O1
inactive: cytotoxicity call (HSkMC) | cytotoxicity call (HepG2) | growth inhibition call (S. aureus RN4220)

C[C@@H]1CN([C@@H](C)CO)C(=O)c2cc(NC(=O)C3CCCCC3)ccc2O[C@@H](C)CCCCO[C@H]1CN(C)Cc1ccccc1
inactive: cytotoxicity call (HSkMC) | cytotoxicity call (HepG2) | growth inhibition call (S. aureus RN4220)

CCCNC(=O)N1C[C@H](O)COC[C@@H]2O[C@H](CC(=O)N3CCN(C)CC3)CC[C@H]21
inactive: cytotoxicity call (HSkMC) | cytotoxicity call (HepG2) | growth inhibition call (S. aureus RN4220)

C[C@@H]1CCCCO[C@H](CN(C)Cc2ccccc2)[C@@H](C)CN([C@H](C)CO)C(=O)c2cc(NC(=O)Nc3cccc4ccccc34)ccc2O1
inactive: cytotoxicity call (HSkMC) | cytotoxicity call (HepG2) | growth inhibition call (S. aureus RN4220)

C[C@H](CO)N1C[C@H](C)[C@H](CN(C)CC2CCCCC2)Oc2ccc(NC(=O)Cn3cnnn3)cc2CC1=O
inactive: cytotoxicity call (HSkMC) | cytotoxicity call (HepG2) | growth inhibition call (S. aureus RN4220)

Cc1noc(C)c1NC(=O)Nc1ccc2c(c1)CC(=O)N([C@H](C)CO)C[C@H](C)[C@H](CN(C)C(=O)Nc1ccc(C(F)(F)F)cc1)O2
inactive: cytotoxicity call (HSkMC) | cytotoxicity call (HepG2) | growth inhibition call (S. aureus RN4220)

Cc1ccc(S(=O)(=O)Nc2ccc3c(c2)C(=O)N([C@H](C)CO)C[C@H](C)[C@H](CN(C)C(=O)Nc2ccc4c(c2)OCO4)OCCCC[C@@H](C)O3)cc1
inactive: cytotoxicity call (HSkMC) | cytotoxicity call (HepG2) | growth inhibition call (S. aureus RN4220)

CN(C)[C@@H]1C(=O)[C@@H](C(=O)NCNCCCC[C@H](N)C(=O)O)C(=O)[C@@]2(O)C(=O)[C@@H]3C(=O)c4c(O)cccc4[C@@](C)(O)[C@H]3C[C@@H]12
inactive: cytotoxicity call (HSkMC) | cytotoxicity call (HepG2) | growth inhibition call (S. aureus RN4220)

Cc1noc(C)c1NC(=O)Nc1ccc2c(c1)C(=O)N([C@H](C)CO)C[C@@H](C)[C@@H](CN(C)Cc1ccccc1)OCCCC[C@H](C)O2
inactive: cytotoxicity call (HSkMC) | cytotoxicity call (HepG2) | growth inhibition call (S. aureus RN4220)

COc1cccc(CN(C)C[C@H]2OCc3ccccc3-c3c(n(C)c4ccccc34)C(=O)N([C@H](C)CO)C[C@@H]2C)c1
inactive: cytotoxicity call (HSkMC) | cytotoxicity call (HepG2) | growth inhibition call (S. aureus RN4220)

CN(C)CC(=O)N[C@H]1CC[C@H](CCNC(=O)C2CC2)O[C@@H]1CO
inactive: cytotoxicity call (HSkMC) | cytotoxicity call (HepG2) | growth inhibition call (S. aureus RN4220)

C[C@@H]1CN([C@H](C)CO)C(=O)c2cc(NC(=O)Nc3ccc(C(F)(F)F)cc3)ccc2O[C@H]1CN(C)S(C)(=O)=O
inactive: cytotoxicity call (HSkMC) | cytotoxicity call (HepG2) | growth inhibition call (S. aureus RN4220)

COCCNC(=O)C[C@@H]1CC[C@H]2[C@@H](COC[C@@H](O)CN2S(=O)(=O)c2ccccc2C)O1
inactive: cytotoxicity call (HSkMC) | cytotoxicity call (HepG2) | growth inhibition call (S. aureus RN4220)

CC(=O)NCC(=O)NS(=O)(=O)c1ccccc1
inactive: cytotoxicity call (HSkMC) | cytotoxicity call (HepG2) | growth inhibition call (S. aureus RN4220)

C[C@H]1CN([C@@H](C)CO)C(=O)c2cccc(NC(=O)Nc3ccc4c(c3)OCO4)c2O[C@@H]1CN(C)S(=O)(=O)c1cn(C)cn1
inactive: cytotoxicity call (HSkMC) | cytotoxicity call (HepG2) | growth inhibition call (S. aureus RN4220)

COc1ccc(NC(=O)Nc2ccc3c(c2)C(=O)N([C@@H](C)CO)C[C@@H](C)[C@@H](CN(C)Cc2ccc(C(=O)O)cc2)OCCCC[C@@H](C)O3)cc1
inactive: cytotoxicity call (HSkMC) | cytotoxicity call (HepG2) | growth inhibition call (S. aureus RN4220)

O=C(C[C@@H]1CC[C@H](NC(=O)Cc2ccccn2)[C@H](CO)O1)NCCCN1CCOCC1
inactive: cytotoxicity call (HSkMC) | cytotoxicity call (HepG2) | growth inhibition call (S. aureus RN4220)

COc1ccc(NC(=O)Nc2ccc3c(c2)C(=O)N([C@@H](C)CO)C[C@@H](C)[C@H](CN(C)C(=O)Nc2ccc(C(F)(F)F)cc2)OCCCC[C@@H](C)O3)cc1
inactive: cytotoxicity call (HSkMC) | cytotoxicity call (HepG2) | growth inhibition call (S. aureus RN4220)

C[C@@H]1CN([C@@H](C)CO)C(=O)Cc2cc(NC(=O)CCC(F)(F)F)ccc2O[C@H]1CN(C)C(=O)Nc1ccc(C(F)(F)F)cc1
inactive: cytotoxicity call (HSkMC) | cytotoxicity call (HepG2) | growth inhibition call (S. aureus RN4220)

Cc1ccc(S(=O)(=O)Nc2ccc3c(c2)CC(=O)N([C@@H](C)CO)C[C@H](C)[C@H](CN(C)S(=O)(=O)c2ccc(F)cc2)O3)cc1
inactive: cytotoxicity call (HSkMC) | cytotoxicity call (HepG2) | growth inhibition call (S. aureus RN4220)

COc1ccc([C@@H](NC(=O)C2CCN(CCOc3ccc(Cl)cc3Cl)CC2)c2ccco2)cc1
inactive: cytotoxicity call (HSkMC) | cytotoxicity call (HepG2) | growth inhibition call (S. aureus RN4220)
